Reference: the supplement of paper PMC3334620
Whole data set: some 33,000 sequences, median “E-score (-0.5 to 0.5)” near -0.032, cut for the highest 2% near 0.36. Some of the results follow.

Target: T1, Sko1 (UniProt Q02100)
T1 sequence: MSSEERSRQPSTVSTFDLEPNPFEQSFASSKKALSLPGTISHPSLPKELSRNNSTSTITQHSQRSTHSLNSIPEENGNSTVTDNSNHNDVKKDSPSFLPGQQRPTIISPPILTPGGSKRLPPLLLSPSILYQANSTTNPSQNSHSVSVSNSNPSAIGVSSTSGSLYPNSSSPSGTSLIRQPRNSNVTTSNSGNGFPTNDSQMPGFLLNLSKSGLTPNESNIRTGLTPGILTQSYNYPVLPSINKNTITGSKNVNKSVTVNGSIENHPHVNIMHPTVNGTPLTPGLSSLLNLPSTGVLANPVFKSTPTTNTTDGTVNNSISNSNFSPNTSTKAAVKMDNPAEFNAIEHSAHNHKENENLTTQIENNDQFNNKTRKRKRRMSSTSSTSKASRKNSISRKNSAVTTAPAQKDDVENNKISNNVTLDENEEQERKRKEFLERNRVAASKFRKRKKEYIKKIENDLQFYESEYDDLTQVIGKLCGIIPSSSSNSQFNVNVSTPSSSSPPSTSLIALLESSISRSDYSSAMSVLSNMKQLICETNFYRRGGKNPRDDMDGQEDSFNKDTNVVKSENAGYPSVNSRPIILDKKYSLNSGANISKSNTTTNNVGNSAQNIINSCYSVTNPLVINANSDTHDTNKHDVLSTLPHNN
Test: PBM E-score (8-mer binding enrichment) (E-score (-0.5 to 0.5)); higher = stronger / more preferred TF binding; most listed sequences are background and not binding sites
Details: protein concentration: 200 nM; construct: GST-full length
Summary of the method: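 For each ungapped eight-base word taken together with its reverse complement, the Universal PBM Analysis Suite assigned an E-score. Binding data came from GST-tagged yeast transcription factors, applied at about 100-200 nM, on universal all-10-mer Agilent arrays made double-stranded by primer extension. Fluorescent anti-GST marked bound protein, and scans were normalised with masliner.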

| Sequence | PBM E-score |
| --- | --- |
| GCTAGCAC | -0.116 |
| TACCCATA | -0.006 |
| AGATAGCC | -0.299 |
| CCCGACGC | -0.148 |
| CGCAGACC | -0.176 |
| ATCTTCTG | 0.0454 |
| GGGATCAC | -0.136 |
| CGGCCCTC | -0.261 |
| AGTAACGG | -0.0156 |
| CCGATAGC | -0.164 |
| AGGAGTAT | 0.00787 |
| AACATGGA | 0.00272 |
| GATGTGCC | -0.141 |
| GGGATAGA | -0.0751 |
| GACCTGGC | -0.297 |
| AAGAAGAC | 0.00849 |
| CACAGTGG | -0.209 |
| GGACCGAC | -0.0912 |
| CAGAATTC | 0.0992 |
| AACCCACA | -0.0796 |
| CCCGATCA | -0.258 |
| GGCGTACA | -0.0526 |
| ATATTCAC | 0.214 |
| ACGACTTC | 0.312 |
| CCACGTCC | 0.109 |

| Sequence | PBM E-score |
| --- | --- |
| CACTTATC | 0.11 |
| CTGGGCAA | -0.145 |
| CAATTTAA | 0.144 |
| ACTGGTAG | -0.0615 |
| CAAGGGGC | -0.27 |
| ACATCCGA | -0.126 |
| TAATGACA | 0.364 |
| ACACAATG | 0.246 |
| AAGACGCG | -0.115 |
| CCGCTACG | 0.103 |
| CGGTTCTC | -0.0999 |
| GAGGCACC | -0.239 |
| ACCTGTTG | 0.0805 |
| CGATCGCG | 0.0985 |
| CGTGTTGC | 0.166 |
| AGTAACTG | -0.00122 |
| AGCAAACT | 0.0407 |
| ACGGACAA | 0.0454 |
| AAAATAGC | -0.113 |
| ACTTTTTC | -0.0473 |
| CAGCCTCA | -0.081 |
| GACCTTAC | 0.0378 |
| CGTGAATA | 0.303 |
| CCCGGTGC | -0.236 |
| CCCTATAC | -0.139 |

| Sequence | PBM E-score |
| --- | --- |
| ACCCCAAG | -0.136 |
| ATCGGACA | 0.0445 |
| CGGAAGCA | 0.0556 |
| ATTGGCGG | 0.0243 |
| GCGGCTGA | -0.128 |
| TCCGCAAA | -0.17 |
| CGGATTAG | -0.0423 |
| AAGATCTA | -0.198 |
| AACGTCCA | 0.245 |
| GTTATAGA | 0.15 |
| AAAAAATG | 0.179 |
| CGGCGGTA | -0.257 |
| GGGAAGGA | -0.191 |
| CCAACGGC | -0.201 |
| ATCTAACA | 0.0736 |
| ATGGAGCG | -0.193 |
| TAGTTCAA | 0.0959 |
| CCTATACG | 0.214 |
| AGTGGTCG | -0.0898 |
| GGAGTCCC | -0.309 |
| AACTCACG | 0.313 |
| TAGTGAGA | 0.0523 |
| GGGGCCGA | -0.306 |
| TAGATCCA | -0.0741 |
| CTGTGGCA | -0.176 |

| Sequence | PBM E-score |
| --- | --- |
| AAGGTACT | 0.00043 |
| ACTATCAC | 0.0962 |
| ACGGGGGC | -0.222 |
| CGTGATTC | 0.125 |
| TCGCCACA | 0.0124 |
| CATAGTAA | 0.25 |
| CCTTTGAA | -0.157 |
| ACTCCCCT | -0.261 |
| CGCCACAA | 0.121 |
| GATCCTAC | 0.0127 |
| CAAAGTGC | -6e-05 |
| AGGTGTAA | -0.0269 |
| ATCTCTGG | -0.0676 |
| CGCTGGTC | -0.261 |
| TGGTGACA | 0.173 |
| CCAGACAG | -0.243 |
| ATCGCGAT | 0.0367 |
| ATCTGGCG | 0.0902 |
| ACTCGTAA | 0.345 |
| CCTGTTAG | -0.0167 |
| CCAACAGC | -0.233 |
| GAGGCGGA | -0.297 |
| AAGTACCC | -0.253 |
| CATATATC | 0.121 |
| GCCCACGA | -0.00692 |

| Sequence | PBM E-score |
| --- | --- |
| AATACCCG | -0.117 |
| CTGGCAAA | 0.00481 |
| ATCTTCGA | 0.00578 |
| GTGCGATA | 0.0494 |
| ACTCCAAT | -0.165 |
| GCGTGAAA | 0.125 |
| CTGAACTC | -0.296 |
| TCCTCCAA | -0.109 |
| GAGTGTGC | -0.109 |
| ATGACTGC | -0.0291 |
| ACTATGTA | 0.222 |
| ATGACTTG | -0.137 |
| CCCCAAGC | -0.0961 |
| CGGCCGAG | -0.237 |
| TCAATAGA | 0.157 |
| ACAACGCC | 0.0338 |
| GAGAATGC | -0.0809 |
| CCTAGGGA | -0.115 |
| CACAATTC | 0.104 |
| GAGCGCCC | -0.287 |
| TACATAAA | 0.308 |
| AGCGAGTC | -0.198 |
| AGTGCAAG | 0.013 |
| ATGGCCTC | -0.185 |
| AACCGAGC | -0.133 |

| Sequence | PBM E-score |
| --- | --- |
| GTACGGTA | 0.207 |
| GGCAGGAA | -0.244 |
| ATCCGAAA | -0.0446 |
| ACCAAGAC | 0.074 |
| GTAGGGAC | -0.0404 |
| ACTGGTGC | -0.119 |
| GAGGCGGC | -0.215 |
| TAGCCTAA | 0.0119 |
| CATATGAG | -0.0409 |
| AGCTATAT | 0.172 |
| CGCTGAAA | -0.161 |
| CCCTTCCC | -0.168 |
| GCCTCCTA | -0.3 |
| TCAATTCA | 0.00979 |
| GGGCGAGA | -0.163 |
| CTCTTCGA | -0.115 |
| CCGCGAGG | -0.233 |
| AGTCTCCC | -0.274 |
| AGCGGACG | -0.13 |
| AAAAAACC | -0.0245 |
| TGGGACCA | -0.078 |
| AGAGCCAA | -0.0594 |
| GCTGGACA | -0.12 |
| CTCCATAA | -0.0183 |
| CTAAGACC | -0.0578 |

| Sequence | PBM E-score |
| --- | --- |
| AAGTGCCG | -0.126 |
| GCGTGCAA | -0.11 |
| CAGGAAGC | 0.00845 |
| AGATGTCC | -0.0513 |
| AAAACCGG | -0.128 |
| AGTGCCAC | -0.223 |
| AAGCTGGG | -0.202 |
| GAGTAAAA | 0.119 |
| ACTAAATG | 0.0819 |
| AAAAGTAC | 0.169 |
| GGTTAGTA | -0.0678 |
| ACTAGTTC | 0.0084 |
| ACCCCTTG | -0.323 |
| ATGTTACA | 0.0856 |
| CCAGATTA | 0.129 |
| ATATACAG | 0.0597 |
| CAGCTTGC | 0.0991 |
| GCGAACGC | -0.0847 |
| TAAGTTCA | 0.0318 |
| CACTGTTC | -0.0457 |
| CTAGCAGC | -0.0931 |
| GCATCGTA | 0.0886 |
| AGTTCGGG | 0.049 |
| GCAGTCTA | -0.207 |
| GCAGCTAA | 0.0158 |

| Sequence | PBM E-score |
| --- | --- |
| GAAATTAC | 0.323 |
| CGCAGTAA | 0.129 |
| ATCTGCAG | 0.0224 |
| CGCGACCG | -0.0458 |
| GAGAGCGC | -0.22 |
| TCGACTCA | -0.0476 |
| CAAGCCGG | 0.015 |
| ACGCCTAT | -0.0299 |
| AAGCTTTC | 0.0125 |
| ATTTCCTA | 0.0111 |
| TCAGCAAA | 0.206 |
| ATCCGTCA | 0.177 |
| AAGTTTCT | 0.168 |
| ACGGGCGG | -0.434 |
| AGCATCGG | -0.181 |
| GGTTTCCA | -0.185 |
| CGTTAGCA | 0.107 |
| GACGAAAA | 0.354 |
| AGCCGGCT | -0.0401 |
| AGGATCTG | -0.212 |
| CTTAGCCC | -0.19 |
| AGTTAGTA | 0.123 |
| ACTGCTAC | 0.108 |
| GTTGTTAA | 0.212 |
| GCTATAAA | 0.0591 |

| Sequence | PBM E-score |
| --- | --- |
| CTTAGCAC | 0.0362 |
| CCTGAATC | 0.0305 |
| TATGGAGA | -0.057 |
| ACGTACCG | 0.372 |
| CGTTCGTA | 0.306 |
| GAATGATC | -0.0198 |
| AGGTACCT | -0.19 |
| CGTAAGAG | 0.376 |
| GCTAAGAA | -0.0558 |
| ACCATACA | -0.0789 |
| AACCTACG | 0.253 |
| CAATATGG | -0.0926 |
| CTCGACAA | 0.0579 |
| GTTTTGGA | -0.00988 |
| ACCCGTGG | -0.34 |
| ATCGATAA | 0.145 |
| ATCCTTAC | 0.174 |
| ATAGATGA | 0.108 |
| CAGAGCCA | -0.101 |
